Results as given in the supplement of paper PMC10126150.
Sequences with one replicate were seen in a single cluster, so their values are uncertain.

System: ATP
Assay: switch fluorescence ratio, 500 uM ATP over buffer (Cy3 cluster intensity, sum of 5 cycles each) (fold (ratio)); higher = stronger signal-on switching upon ATP binding; sequences stand for … in TCGTCGGCAGCGTCAGATGTGTATAAGAGACAGTTTTTTTTTTTTTTTTTTTTTTTTT…TC
Conditions: aptamer strand: ATP DNA aptamer (quencher-CACCTGGGGGAGTATTGCGGAGGAAGG + anchor), 100 nM annealed; ATP concentration: 500 uM; one replicate
Outline: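 Values give the fluorescence ratio for each switch-domain sequence, averaged from per-cluster ratios of summed target-cycle to summed buffer-cycle Cy3 intensity. The Cy3-labelled switching-strand clusters sat on a modified Illumina MiSeq flow-cell, were annealed to 100 nM quencher-labelled ATP aptamer, and were imaged in selection buffer, then after 15 min with 500 uM ATP at 22 °C. Five cycles ran with NaOH stripping and re-annealing between them, and clusters outside 100-1000 RFU were excluded.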
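Further: ATP exposure 15 min at 22 °C before imaging.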

Sequence	switch fluorescence ratio
AAAAAAAGTG	1.03
AAAAAAGGAG	0.99
AAAAAATAGA	0.997
AAAAAATATG	1.03
AAAAACAACG	0.994
AAAAACAGC	0.976
AAAAACGGAT	0.977
AAAAACTCAC	1.07
AAAAACTCGA	1.01
AAAAACTTCT	1.08
AAAAAGAACA	1.03
AAAAATAAAA	0.996
AAAAATCGTA	0.985
AAAACATATA	1.02
AAAACCTTAT	1.21
AAAACGTCGC	0.998
AAAACTTTT	0.95
AAAAGACGCC	1.01
AAAAGATTTG	0.984
AAAAGCTCGC	0.987
AAAAGGATGT	1.02
AAAAGGCCTC	0.98
AAAAGGGCG	1.03
AAAAGGGT	1.02
AAAAGGGTGG	1
AAAAGGTCTA	0.969

Sequence	switch fluorescence ratio
AAAAGTCGAG	0.988
AAAAGTCGG	0.969
AAAAGTCTTG	1.04
AAAATAGTGC	1.06
AAAATGAATA	0.942
AAAATGAATC	0.978
AAAATGGCGG	1.02
AAAATGTCAC	1.03
AAAATTCCTT	1.08
AAAATTCTAC	1.04
AAAATTGA	0.975
AAAATTGGCA	1.02
AAACACGGGA	1.06
AAACAGACTT	1.01
AAACAGAGCC	1.02
AAACAGAGT	0.961
AAACAGGGG	1.19
AAACATGTTG	0.972
AAACCAACGG	1.08
AAACCAAGTA	1.03
AAACCAGAAG	1.05
AAACCAGGGA	1.08
AAACCCGGTC	1.04
AAACCGGGTT	0.996
AAACCTCGTA	1.06
AAACGAAAAG	0.949

Sequence	switch fluorescence ratio
AAACGACGGG	1.06
AAACGAGGAA	0.988
AAACGATGGA	0.979
AAACGCCCCA	1.05
AAACGGCGTA	0.963
AAACGGTCTA	0.983
AAACGTGTGC	1.03
AAACTAAACC	1.1
AAACTAAGC	0.964
AAACTATAAG	1.01
AAACTATTCA	1.04
AAACTCCTGA	1.01
AAACTGGCTT	0.98
AAACTGGTCT	0.966
AAACTTGTTG	1.03
AAACTTTGGA	1
AAAGAAGGCC	1.05
AAAGACAAGC	1
AAAGACGGTG	0.983
AAAGACTACG	1.06
AAAGACTGCG	0.997
AAAGAGCGTT	1.04
AAAGATAGA	1.03
AAAGCAAATC	1.64
AAAGCATCGG	1.01
AAAGCCTCGC	0.996

Sequence	switch fluorescence ratio
AAAGCGAAGC	1
AAAGCGTACC	1.31
AAAGCTAGCA	0.99
AAAGGACGTT	1.02
AAAGGATACC	1.13
AAAGGATTAG	1
AAAGGCACAT	1
AAAGGCATCA	1.05
AAAGGCTAGT	0.991
AAAGGGAAGC	0.959
AAAGGGTGCC	0.986
AAAGGGTT	1.07
AAAGGTATCC	0.973
AAAGGTCAAA	0.994
AAAGGTGAG	1.04
AAAGTAGTTC	0.964
AAAGTATTAG	0.968
AAAGTATTTA	1.06
AAAGTGCA	0.988
AAAGTGTACT	0.975
AAAGTGTCTA	0.978
AAAGTTCAGC	0.997
AAAGTTGAAA	0.979
AAAGTTGTTA	1.01
AAATAAGGGT	1.04
AAATAATGAG	0.947

Sequence	switch fluorescence ratio
AAATACCAAC	1.18
AAATAGAAAA	1.02
AAATAGATGT	0.994
AAATATACTT	1.01
AAATATCGGG	1.03
AAATATGACC	1.06
AAATCATTCA	1.02
AAATCATTCT	1.01
AAATCCATCC	1.47
AAATCCGCGG	1.11
AAATCCTGGG	1.06
AAATCGAATT	1.01
AAATCGCTGT	0.949
AAATCGGGCT	1.02
AAATCGTCTG	1.05
AAATCTGGT	0.953
AAATCTGTAC	1.12
AAATCTTAGC	1.02
AAATGAAGTG	1.04
AAATGAGTAA	0.982
AAATGCAGTT	1.02
AAATGCGACG	1.02
AAATGCGGTC	1.01
AAATGCGGTG	0.967
AAATGGCAAA	0.959
AAATGGTAAG	0.989

Sequence	switch fluorescence ratio
AAATGGTATG	0.965
AAATGGTCTA	0.993
AAATGTAAAC	1
AAATGTACAA	1.09
AAATGTATAG	1.05
AAATGTATGC	1.02
AAATGTCGGT	1.02
AAATGTGCTA	1.01
AAATGTGTAT	0.989
AAATTACTT	1.03
AAATTAGCTC	0.942
AAATTATATT	1
AAATTCACAT	1.03
AAATTCAGTA	1.03
AAATTCGGT	0.984
AAATTGAAAC	1.01
AAATTGCG	1.02
AAATTGTCCT	1.09
AAATTTCCCT	0.962
AAATTTTGTA	0.998
AACAAAAGAT	0.943
AACAAAATGG	1.01
AACAAACGC	1.31
AACAAATCCC	0.96
AACAACCGGC	1.05
AACAAGAGAG	1.04

Sequence	switch fluorescence ratio
AACAAGCCAT	1.03
AACAAGGTCT	1.01
AACAAGTGCG	0.959
AACAATTGGT	0.994
AACACAGACG	1.15
AACACCAAGC	1
AACACCATAA	1.04
AACACCGGAG	1.05
AACACGGGAG	0.999
AACAGAAGA	0.958
AACAGGATAC	1.11
AACAGGGCT	0.994
AACAGTCAGC	1.04
AACATAGCGA	1.06
AACATCCTGC	1.05
AACATGGGCA	0.975
AACATTGAAA	0.998
AACCAAAGAT	0.989
AACCAGATAT	0.997
AACCAGCATG	1.05
AACCAGGTCG	1.11
AACCAGGTTA	1.03
AACCAGTGC	1.19
AACCATCTGA	1.03
AACCATGCCA	0.991
AACCATGTAA	1

Sequence	switch fluorescence ratio
AACCCATAGC	1.08
AACCCGGAGC	1.69
AACCCGGTCC	1.19
AACCGAAGGT	1.02
AACCGAGCCA	1.04
AACCGCAGAG	1.25
AACCTACTTG	1.11
AACCTAGTTT	1.05
AACCTATTTG	1.04
AACCTCAGCT	1.17
AACCTCCAAG	1.18
AACCTCTCTG	1.25
AACCTGAGGT	0.951
AACCTGTGTA	1.01
AACCTTGGCG	0.987
AACGAACTTT	1.2
AACGAAGAGC	0.986
AACGAAGGGC	1.02
AACGACAGAG	1.02
